{"source": "the antibiotic and cytotoxicity screens of Wong et al. (2023)", "note": "Some of the results follow."}
{"tested_on": "HSkMC (human skeletal muscle cells)", "experiment": "cytotoxicity call (relative viability < 0.9)", "settings": "10 µM"}
{"smiles": "Cc1ccc(-c2ccc3c(c2)O[C@H](CN(C)C(=O)Nc2ccc(C(F)(F)F)cc2)[C@H](C)CN([C@H](C)CO)S3(=O)=O)cc1", "cytotoxicity call": "inactive"}
{"smiles": "CC(C)NC(=O)Nc1ccc2c(c1)C(=O)N([C@@H](C)CO)C[C@H](C)[C@H](CN(C)C(=O)Nc1ccc(F)cc1)OCCCC[C@@H](C)O2", "cytotoxicity call": "inactive"}
{"smiles": "CN(Cn1[nH]c(=O)ccc1=O)c1ccccc1", "cytotoxicity call": "inactive"}
{"smiles": "C[C@@H]1CN([C@H](C)CO)C(=O)Cc2cc(NC(=O)Cn3cnnn3)ccc2O[C@H]1CN(C)C(=O)Nc1ccccc1", "cytotoxicity call": "inactive"}
{"smiles": "CCC=C(C(=O)NC1C(=O)N2C(C(=O)OCOC(=O)C(C)(C)C)=C(COC(N)=O)CSC12)c1csc(N)n1.Cl", "note": "(stereo not given)", "cytotoxicity call": "inactive"}
{"smiles": "Cc1noc(C)c1NC(=O)Nc1cccc2c1O[C@@H](CN(C)S(C)(=O)=O)[C@H](C)CN([C@H](C)CO)C2=O", "cytotoxicity call": "inactive"}
{"smiles": "COc1ccc(NC(=O)Nc2ccc3c(c2)C(=O)N([C@@H](C)CO)C[C@H](C)[C@@H](CN(C)Cc2ccc(C(F)(F)F)cc2)OCCCC[C@H](C)O3)cc1", "cytotoxicity call": "inactive"}
{"smiles": "CCCCNC(=O)N1C[C@@H]2[C@H](CN)[C@@H]2C1", "cytotoxicity call": "inactive"}
{"smiles": "NS(=O)(=O)c1ccc(NC(=O)[C@H]2CCCNC2=O)cc1", "cytotoxicity call": "inactive"}
{"smiles": "C[C@H]1CCCCO[C@@H](CN(C)C(=O)CCC(F)(F)F)[C@@H](C)CN([C@@H](C)CO)C(=O)c2cc(NC(=O)c3ccccc3)ccc2O1", "cytotoxicity call": "inactive"}
{"smiles": "CC(C)(Sc1ccc(CCN(CCCCC2CCCCC2)C(=O)NC2CCCCC2)cc1)C(=O)O", "cytotoxicity call": "inactive"}
{"smiles": "CCCC(=O)Nc1ccc2c(c1)C(=O)N(C)C[C@@H](OC)[C@H](C)CN(S(=O)(=O)c1cn(C)cn1)[C@@H](C)CO2", "cytotoxicity call": "inactive"}
{"smiles": "C[C@H](CO)N1C[C@H](C)[C@H](CN(C)Cc2ccc3c(c2)OCO3)Oc2ncc(Br)cc2C1=O", "cytotoxicity call": "inactive"}
{"smiles": "C[C@H]1CN([C@@H](C)CO)C(=O)c2cccc(NC(=O)C3CCOCC3)c2O[C@H]1CN(C)S(=O)(=O)c1ccc(F)cc1", "cytotoxicity call": "inactive"}
{"smiles": "C[C@@H]1CCCCO[C@H](CN(C)S(=O)(=O)c2cn(C)cn2)[C@H](C)CN([C@@H](C)CO)C(=O)c2cc(NC(=O)Nc3cccc4ccccc34)ccc2O1", "cytotoxicity call": "inactive"}
{"smiles": "COc1ccc([Si](C)(C)[C@@H]2[C@@H](CC(=O)N3Cc4ccccc4C[C@H]3CO)O[C@]3(C(=O)N(Cc4cccc(N5C(=O)c6cccc7cccc5c67)c4)c4ccccc43)[C@H]2C)cc1", "cytotoxicity call": "inactive"}
{"smiles": "COc1ccc(S(=O)(=O)N(C)C[C@H]2Oc3c(NC(=O)c4cc(C)nn4C)cccc3C(=O)N([C@@H](C)CO)C[C@H]2C)cc1", "cytotoxicity call": "inactive"}
{"smiles": "COc1ccc(NC(=O)Nc2ccc3c(c2)C(=O)N([C@@H](C)CO)C[C@@H](C)[C@H](CN(C)S(=O)(=O)c2ccccc2)OCCCC[C@H](C)O3)cc1", "cytotoxicity call": "inactive"}
{"smiles": "COCC(=O)Nc1ccc2c(c1)C(=O)N(C)C[C@@H](OC)[C@@H](C)CN(C(=O)Cc1ccccn1)[C@@H](C)CO2", "cytotoxicity call": "inactive"}
{"smiles": "CC(C)(C)OC(=O)CC[C@@]12N=C(c3ccc(OCCCO)cc3)O[C@@H]1c1ccccc1CN(Cc1ccccc1)C2=O", "cytotoxicity call": "inactive"}
{"smiles": "NC(=O)c1ccc(CN2CCOCC2)cc1", "cytotoxicity call": "inactive"}
{"smiles": "O=C(N[C@@H]1CC[C@@H](CC(=O)N2CCOCC2)O[C@@H]1CO)c1ccc2c(c1)OCO2", "cytotoxicity call": "inactive"}
{"smiles": "CO[C@H]1CN(C)C(=O)c2cc(NC(=O)NC(C)C)ccc2OC[C@H](C)N(Cc2ccc(-c3ccccn3)cc2)C[C@@H]1C", "cytotoxicity call": "inactive"}
{"smiles": "O=C(COc1ccccc1)N1CCNC1=O", "cytotoxicity call": "inactive"}
{"smiles": "COc1ccc(S(=O)(=O)N(C)C[C@@H]2Oc3ccc(NC(=O)C4CC4)cc3CC(=O)N([C@H](C)CO)C[C@H]2C)cc1", "cytotoxicity call": "inactive"}
{"smiles": "COc1ccc(NC(=O)Nc2ccc3c(c2)CC(=O)N([C@H](C)CO)C[C@@H](C)[C@H](CN(C)S(C)(=O)=O)O3)cc1", "cytotoxicity call": "inactive"}
{"smiles": "COc1ccc(CN(C)C[C@H]2OCCCC[C@H](C)Oc3ccc(NC(=O)NC(C)C)cc3C(=O)N([C@H](C)CO)C[C@H]2C)cc1", "cytotoxicity call": "inactive"}
{"smiles": "CC(C)NC(=O)N(C)C[C@@H]1Oc2ccc(NC(=O)Cc3ccccc3)cc2C(=O)N([C@@H](C)CO)C[C@@H]1C", "cytotoxicity call": "inactive"}
{"smiles": "C[C@H](CO)N1C[C@H](C)[C@H](CN(C)C(=O)Nc2ccc(C(F)(F)F)cc2)Oc2ccc(NC(=O)Nc3cccc4ccccc34)cc2CC1=O", "cytotoxicity call": "inactive"}
{"smiles": "C[C@@H]1CO[C@]2(O[C@H]3C[C@H]4[C@H]5C[C@H](O[C@H]6O[C@@H](C)[C@@H](O)[C@@H](O[C@@H]7O[C@@H](C)[C@H](O)[C@@H](O)[C@H]7O)[C@@H]6O)[C@H]6C[C@@H](O)CC[C@]6(C)[C@@H]5CC[C@]4(C)[C@H]3[C@@H]2C)[C@@H](O)C1", "cytotoxicity call": "inactive"}
{"smiles": "C[C@H]1CN([C@@H](C)CO)S(=O)(=O)c2ccc(C#CC3CC3)cc2O[C@H]1CN(C)Cc1cccc(F)c1", "cytotoxicity call": "inactive"}
{"smiles": "CCS(=O)(=O)Nc1ccc2c(c1)C(=O)N(C)[C@H]1CC[C@H](CC(=O)Nc3ccccc3C)O[C@@H]1CO2", "cytotoxicity call": "inactive"}
{"smiles": "C[C@@H]1CCCCO[C@@H](CN(C)Cc2ccc3c(c2)OCO3)[C@@H](C)CN([C@@H](C)CO)C(=O)c2cc(NC(=O)Nc3ccccc3)ccc2O1", "cytotoxicity call": "inactive"}
{"smiles": "C[C@H]1CN([C@@H](C)CO)C(=O)c2cc(C#Cc3ccccc3F)cnc2O[C@@H]1CN(C)S(=O)(=O)c1ccccc1", "cytotoxicity call": "inactive"}
{"smiles": "COc1ccc(S(=O)(=O)N[C@H]2C=C[C@@H](CC(=O)NCCc3ccncc3)O[C@H]2CO)cc1", "cytotoxicity call": "inactive"}
{"smiles": "CCCN1C(C)=C(C(=O)OC)[C@@H](c2cccc([N+](=O)[O-])c2)C(C(=O)ON2CCC(c3ccccc3)(c3ccccc3)CC2)=C1C", "cytotoxicity call": "active"}
{"smiles": "Cc1cc(C(=O)Nc2cccc3c2O[C@@H](CN(C)S(=O)(=O)c2c(C)noc2C)[C@@H](C)CN([C@H](C)CO)C3=O)n(C)n1", "cytotoxicity call": "inactive"}
{"smiles": "CN(C)C(=O)c1cccc(-c2ccc3n(c2=O)C[C@H]2[C@H](CO)[C@@H](C(=O)NCC4CC4)N[C@@H]32)c1", "cytotoxicity call": "inactive"}
{"smiles": "CC(C)NC(=O)N(C)C[C@@H]1Oc2ccc(NC(=O)c3ccncc3)cc2CC(=O)N([C@H](C)CO)C[C@@H]1C", "cytotoxicity call": "inactive"}
{"smiles": "NCC(=O)N1C[C@H](NC(=O)c2ccccc2)C[C@H]1C(=O)O", "cytotoxicity call": "inactive"}
